23 molecules from the supplement of paper PMC4604168 (melanoma cell lines) can be followed below.

The other results are listed elsewhere or left out. Most values come without repeats; read them as rough.
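Also: cell number obtained by counting DAPI-stained nuclei in high-throughput microscope images with image analysis software, screen run in 1,536-well plates.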

The subject of the test is WM1745. Description: cell count relative to DMSO control; melanoma cells; higher = more viable cells. The conditions noted are these: library dose: low library concentration; 72 h.
Turning to `CCc1ccc(CCOc2ccc(CC3SC(=O)NC3=O)cc2)nc1` (stereo not drawn) [pioglitazone] + Cc1cc([N+](=O)[O-])ccc1NS(=O)(=O)c1cc(Cl)ccc1Cl [FH535] (first compound 2 µM, partner dose 1 µM), the cell count came out at 98.9%.
The same measure for `CCc1ccc(CCOc2ccc(CC3SC(=O)NC3=O)cc2)nc1` (stereo not drawn) [pioglitazone] + COC(=O)c1sccc1S(=O)(=O)Nc1ccc(Nc2ccccc2)cc1OC [GSK0660] (first compound 2 µM, partner dose 1 µM): 105%; for `COc1cc2c(Oc3ccc4[nH]c(C)cc4c3F)ncnc2cc1OCCCN1CCCC1` [cediranib] + COc1ccc(COc2ccc(Cc3cnc(N)nc3N)cc2OC)cc1 [GW2580] (first compound 0.4 µM, partner dose 1 µM): 94.4%; for `Cc1ccc(NC(=O)c2cccc(N(C)C)c2)cc1NC(=O)c1ccc(O)cc1` + COc1ccc2c(c1)CCC1C2CCC2(C)C(NCCCCCCN3C(=O)C=CC3=O)CCC12 [U73122] (first compound 2 µM, partner dose 0.4 µM): 89.8%.
Under `CN(NC(=O)CC(=O)NN(C)C(=S)c1ccccc1)C(=S)c1ccccc1` + CCc1ccc(CCOc2ccc(CC3SC(=O)NC3=O)cc2)nc1 [pioglitazone] (first compound 0.006 µM, partner dose 2 µM) stands 57.5%; under `CN(NC(=O)CC(=O)NN(C)C(=S)c1ccccc1)C(=S)c1ccccc1` + Oc1nc(-c2ccc(C(F)(F)F)cc2)nc2c1CSCC2 [XAV939] (first compound 0.006 µM, partner dose 2 µM), 76.7%; under `CCc1ccc(CCOc2ccc(CC3SC(=O)NC3=O)cc2)nc1` (stereo not drawn) [pioglitazone] + CCN(CC)CCCCNc1ncc2cc(-c3cc(OC)cc(OC)c3)c(NC(=O)NC(C)(C)C)nc2n1 [PD173074] (first compound 2 µM, partner dose 0.1 µM), 89%.
Under `CN(NC(=O)CC(=O)NN(C)C(=S)c1ccccc1)C(=S)c1ccccc1` + Cc1cc([N+](=O)[O-])ccc1NS(=O)(=O)c1cc(Cl)ccc1Cl [FH535] (first compound 0.006 µM, partner dose 1 µM) stands 35%.
Consider `CC(C)(C)c1cnc(CSc2cnc(NC(=O)C3CCNCC3)s2)o1` + CCCCCCCCCCCC1=C(O)C(=O)C=C(O)C1=O [Embelin] (first compound 0.01 µM, partner dose 1.2 µM), for which the cell count is 86.9%.
As for `Cc1ccc(NC(=O)c2cccc(N(C)C)c2)cc1NC(=O)c1ccc(O)cc1` + O=C1NC(=O)/C(=C/c2ccc(-c3ccc(F)cc3O)o2)S1 [AS252424] (first compound 2 µM, partner dose 1 µM), the cell count was 99.1%.
The molecule `CC(C)(C)c1cnc(CSc2cnc(NC(=O)C3CCNCC3)s2)o1` + CCN(CC)CCCCNc1ncc2cc(-c3cc(OC)cc(OC)c3)c(NC(=O)NC(C)(C)C)nc2n1 [PD173074] (first compound 0.01 µM, partner dose 0.1 µM) showed a cell count of 99.6%.
Under `Cc1ccc(NC(=O)c2cccc(N(C)C)c2)cc1NC(=O)c1ccc(O)cc1` + COc1ccc(-c2ccc3c(N4CCOCC4)nc(N4C[C@@H](C)O[C@@H](C)C4)nc3n2)cc1CO [KU0063794] (first compound 2 µM, partner dose 0.02 µM) stands 89.6%.
Under `Cc1ccc(NC(=O)c2cccc(N(C)C)c2)cc1NC(=O)c1ccc(O)cc1` + O=C(Nc1ccccc1)c1cc([N+](=O)[O-])ccc1Cl [GW9662] (first compound 2 µM, partner dose 2 µM) stands 80.3%; under `CCc1ccc(CCOc2ccc(CC3SC(=O)NC3=O)cc2)nc1` (stereo not drawn) [pioglitazone] + COc1ccc(-c2ccc3c(N4CCOCC4)nc(N4C[C@@H](C)O[C@@H](C)C4)nc3n2)cc1CO [KU0063794] (first compound 2 µM, partner dose 0.02 µM), 91.3%; under `COc1cc2c(Oc3ccc4[nH]c(C)cc4c3F)ncnc2cc1OCCCN1CCCC1` [cediranib] + COC(=O)c1sccc1S(=O)(=O)Nc1ccc(Nc2ccccc2)cc1OC [GSK0660] (first compound 0.4 µM, partner dose 1 µM), 85.5%.
`CN(NC(=O)CC(=O)NN(C)C(=S)c1ccccc1)C(=S)c1ccccc1` + COc1ccc(-c2ccc3c(N4CCOCC4)nc(N4C[C@@H](C)O[C@@H](C)C4)nc3n2)cc1CO [KU0063794] (first compound 0.006 µM, partner dose 0.02 µM) showed a cell count of 55.6%.
As for `CCc1ccc(CCOc2ccc(CC3SC(=O)NC3=O)cc2)nc1` (stereo not drawn) [pioglitazone] + COc1ccc(COc2ccc(Cc3cnc(N)nc3N)cc2OC)cc1 [GW2580] (first compound 2 µM, partner dose 1 µM), the cell count is 108%.
Under `Cc1ccc(NC(=O)c2cccc(N(C)C)c2)cc1NC(=O)c1ccc(O)cc1` + CCCCCCCCCCCC1=C(O)C(=O)C=C(O)C1=O [Embelin] (first compound 2 µM, partner dose 1.2 µM) stands 86.4%.
Under `Cc1ccc(NC(=O)c2cccc(N(C)C)c2)cc1NC(=O)c1ccc(O)cc1` + CCN(CC)CCCCNc1ncc2cc(-c3cc(OC)cc(OC)c3)c(NC(=O)NC(C)(C)C)nc2n1 [PD173074] (first compound 2 µM, partner dose 0.1 µM) stands 88.6%; under `CCc1ccc(CCOc2ccc(CC3SC(=O)NC3=O)cc2)nc1` (stereo not drawn) [pioglitazone] + CCCCCCCCCCCC1=C(O)C(=O)C=C(O)C1=O [Embelin] (first compound 2 µM, partner dose 1.2 µM), 83.7%.
Under `COc1cc2c(Oc3ccc4[nH]c(C)cc4c3F)ncnc2cc1OCCCN1CCCC1` [cediranib] + CCCCCCCCCCCC1=C(O)C(=O)C=C(O)C1=O [Embelin] (first compound 0.4 µM, partner dose 1.2 µM) stands 85.1%.
Molecule `CC(C)(C)c1cnc(CSc2cnc(NC(=O)C3CCNCC3)s2)o1` + Cc1cc([N+](=O)[O-])ccc1NS(=O)(=O)c1cc(Cl)ccc1Cl [FH535] (first compound 0.01 µM, partner dose 1 µM) returned a cell count of 94.9%.
Under `CC(C)(C)c1cnc(CSc2cnc(NC(=O)C3CCNCC3)s2)o1` + N#Cc1c(O)c2c(-c3ccc(-c4ccccc4O)cc3)csc2[nH]c1=O [A769662] (first compound 0.01 µM, partner dose 2 µM) stands 103%.
